This is one part of the list. For part of these data: At the low end of the ranking, values are background and their order means little. For part of these data: Measured with an extract: partners may take part in the binding.
Target: PU.1 (IVT) (UniProt P17947)
Assay: protein-binding microarray (PBM)
Conditions: 20 mM HEPES pH 7.9, 100 mM NaCl, 1 mM DTT, 0.2 mg/mL BSA, 0.02% Triton X-100, 2% milk, 0.4 mg/mL salmon testes DNA; 1 h; temperature not stated; high values mean tight binding; double strand, one strand shown; sequences stand for … in GCCTAGCAC…GTGCTAGGTCTTGATTCGCTTGACGCTGCTG

Row | Sequence | binding signal
1 | GGGAACAGGAAGTGAAAATG | 5.3 z-score
2 | CAGAGGGGGAAGTGGTCAAC | 3.72 z-score
3 | TGAGAGAGGAAGTGGAGCTC | 4.2 z-score
4 | AAGAAGGGGAAGTGCCCTCA | 5.91 z-score
5 | GAAATGGGGAAGTGTGAGTC | 7.05 z-score
6 | CAAAACGGGAAGTGGATGCT | 7.04 z-score
7 | GATAAGAGGAAGTCCTCTGA | 5.59 z-score
8 | GGGAACGGGAAGTGAGTGTT | 4.71 z-score
9 | GAAAGGGGGAAGTGACTAAG | 5.51 z-score
10 | AAAAAAGGGAAGTGATTTAA | 8.59 z-score
11 | GAAAACAGGAGGTCCCATAG | -0.0923 z-score
12 | AAATAGAGGAAGTGCTTATA | 7.29 z-score
13 | TGAAGGAGGAAGTGGACTGA | 5.4 z-score
14 | TAAAAGAGGAAATGTGATGA | 4.59 z-score
15 | GGAAAGAGGAACTCTGCTCT | 5.76 z-score
16 | GGAAAGAGGAAGTACTGTAG | 7.98 z-score
17 | TTAAAAGGGAAGTGAGAAGA | 5.16 z-score
18 | AGGGAGGGGAAGTGAATGCC | 3.73 z-score
19 | ACAAAAAGGAACTGTGCCAC | 1.92 z-score
20 | TGAAAGAGGAAGCGCAACCA | 4.68 z-score

Row | Sequence | binding signal
21 | AGAGGGAGGAAGTGGTGCAG | 3.63 z-score
22 | GAAATCAGGAAGTGCAAGTC | 6.06 z-score
23 | AAAAAGCGGAAGTGCAAAAG | 8.5 z-score
24 | TGGCAGAGGAAGTGGCCATT | 3.11 z-score
25 | TAAATGGGGAAGTCACATAT | 6.17 z-score
26 | CAAAAAGGCAAGTGGATGCT | -0.0802 z-score
27 | ACCATAGGGAAGTGGAAACA | 3.88 z-score
28 | TTGAGGAGGAAGTGGGGTCT | 3.8 z-score
29 | GAGAAGAGGAAGTCCTCTGT | 6.09 z-score
30 | GCCTAGGGGAACTGCCTGTG | 1.77 z-score
31 | TCAAAGGGGAAGTGAGGCCA | 5.61 z-score
32 | AGAAAGAGGAAGTTCCCGTC | 8.56 z-score
33 | GAAAAGAGGAAGTTGGGGAA | 8.94 z-score
34 | GAAAAGAGGAACTCAAATTG | 7.12 z-score
35 | AGAATGAGGAAGTCATCACA | 7.57 z-score
36 | AACAAGAGGAAGTGGCTTTC | 5.51 z-score
37 | GATAAGAGGAAGTCCTCCGT | 5.74 z-score
38 | TAAGAAAGGAAGTGAGCAGA | 2.26 z-score
39 | CGAATGAGGAAATGAAGGCA | 3.57 z-score
40 | AGACAGGGGAAGTGATCTGC | 3.9 z-score

Target: PU.1 (endogenous, THP-1 nuclear extract) (UniProt P17947)
Assay: nuclear extract protein-binding microarray (nextPBM)
Conditions: 20 mM HEPES pH 7.9, 100 mM NaCl, 1 mM DTT, 0.2 mg/mL BSA, 0.02% Triton X-100, 2% milk, 0.4 mg/mL salmon testes DNA; 1 h; temperature not stated; high values mean tight binding; double strand, one strand shown; sequences stand for … in GCCTAGCAC…GTGCTAGGTCTTGATTCGCTTGACGCTGCTG

Row | Sequence | binding signal
41 | GGGAACAGGAAGTGAAAATG | 5.79 z-score
42 | CAGAGGGGGAAGTGGTCAAC | 3.98 z-score
43 | TGAGAGAGGAAGTGGAGCTC | 4.36 z-score
44 | AAGAAGGGGAAGTGCCCTCA | 6.53 z-score
45 | GAAATGGGGAAGTGTGAGTC | 6.91 z-score
46 | CAAAACGGGAAGTGGATGCT | 6.94 z-score
47 | GATAAGAGGAAGTCCTCTGA | 6.41 z-score
48 | GGGAACGGGAAGTGAGTGTT | 4.95 z-score
49 | GAAAGGGGGAAGTGACTAAG | 5.96 z-score
50 | AAAAAAGGGAAGTGATTTAA | 7.46 z-score
51 | GAAAACAGGAGGTCCCATAG | -0.016 z-score
52 | AAATAGAGGAAGTGCTTATA | 7.1 z-score
53 | TGAAGGAGGAAGTGGACTGA | 5.86 z-score
54 | TAAAAGAGGAAATGTGATGA | 4.5 z-score
55 | GGAAAGAGGAACTCTGCTCT | 6.3 z-score
56 | GGAAAGAGGAAGTACTGTAG | 7.47 z-score
57 | TTAAAAGGGAAGTGAGAAGA | 5.19 z-score
58 | AGGGAGGGGAAGTGAATGCC | 3.7 z-score
59 | ACAAAAAGGAACTGTGCCAC | 1.51 z-score
60 | TGAAAGAGGAAGCGCAACCA | 5.73 z-score

Row | Sequence | binding signal
61 | AGAGGGAGGAAGTGGTGCAG | 3.24 z-score
62 | GAAATCAGGAAGTGCAAGTC | 6.62 z-score
63 | AAAAAGCGGAAGTGCAAAAG | 7.35 z-score
64 | TGGCAGAGGAAGTGGCCATT | 3.05 z-score
65 | TAAATGGGGAAGTCACATAT | 6.6 z-score
66 | CAAAAAGGCAAGTGGATGCT | -0.0353 z-score
67 | ACCATAGGGAAGTGGAAACA | 3.9 z-score
68 | TTGAGGAGGAAGTGGGGTCT | 4.2 z-score
69 | GAGAAGAGGAAGTCCTCTGT | 6.39 z-score
70 | GCCTAGGGGAACTGCCTGTG | 1.93 z-score
71 | TCAAAGGGGAAGTGAGGCCA | 6.06 z-score
72 | AGAAAGAGGAAGTTCCCGTC | 7.43 z-score
73 | GAAAAGAGGAAGTTGGGGAA | 7.4 z-score
74 | GAAAAGAGGAACTCAAATTG | 6.82 z-score
75 | AGAATGAGGAAGTCATCACA | 7.22 z-score
76 | AACAAGAGGAAGTGGCTTTC | 6.14 z-score
77 | GATAAGAGGAAGTCCTCCGT | 6.34 z-score
78 | TAAGAAAGGAAGTGAGCAGA | 2.19 z-score
79 | CGAATGAGGAAATGAAGGCA | 3.7 z-score
80 | AGACAGGGGAAGTGATCTGC | 3.47 z-score

Target: T1, FLI1 (endogenous, THP-1 nuclear extract) (UniProt Q01543)
T1 sequence: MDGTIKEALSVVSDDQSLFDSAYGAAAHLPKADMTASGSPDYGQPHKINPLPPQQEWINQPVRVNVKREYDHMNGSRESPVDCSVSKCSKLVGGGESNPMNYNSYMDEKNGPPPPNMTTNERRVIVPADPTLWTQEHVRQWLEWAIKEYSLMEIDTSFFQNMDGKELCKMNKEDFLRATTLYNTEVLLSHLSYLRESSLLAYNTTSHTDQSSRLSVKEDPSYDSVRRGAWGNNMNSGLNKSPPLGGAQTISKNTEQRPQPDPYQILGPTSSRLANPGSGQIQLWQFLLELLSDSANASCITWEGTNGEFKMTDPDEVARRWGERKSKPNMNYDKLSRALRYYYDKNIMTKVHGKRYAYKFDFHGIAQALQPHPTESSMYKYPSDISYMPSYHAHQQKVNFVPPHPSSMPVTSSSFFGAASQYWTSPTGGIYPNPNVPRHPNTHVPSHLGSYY
Assay: as above
Conditions: 20 mM HEPES pH 7.9, 100 mM NaCl, 1 mM DTT, 0.2 mg/mL BSA, 0.02% Triton X-100, 2% milk, 0.4 mg/mL salmon testes DNA; 1 h; temperature not stated; high values mean tight binding; double strand, one strand shown; sequences stand for … in GCCTAGCAC…GTGCTAGGTCTTGATTCGCTTGACGCTGCTG

Row | Sequence | binding signal
81 | GGGAACAGGAAGTGAAAATG | 5.1 z-score
82 | CAGAGGGGGAAGTGGTCAAC | 2.01 z-score
83 | TGAGAGAGGAAGTGGAGCTC | 3.03 z-score
84 | AAGAAGGGGAAGTGCCCTCA | 2.61 z-score
85 | GAAATGGGGAAGTGTGAGTC | 3.36 z-score
86 | CAAAACGGGAAGTGGATGCT | 3.36 z-score
87 | GATAAGAGGAAGTCCTCTGA | 2.88 z-score
88 | GGGAACGGGAAGTGAGTGTT | 2.8 z-score
89 | GAAAGGGGGAAGTGACTAAG | 2.5 z-score
90 | AAAAAAGGGAAGTGATTTAA | 3.95 z-score
91 | GAAAACAGGAGGTCCCATAG | -0.168 z-score
92 | AAATAGAGGAAGTGCTTATA | 3.59 z-score
93 | TGAAGGAGGAAGTGGACTGA | 2.83 z-score
94 | TAAAAGAGGAAATGTGATGA | 2.61 z-score
95 | GGAAAGAGGAACTCTGCTCT | 1.96 z-score
96 | GGAAAGAGGAAGTACTGTAG | 3.81 z-score
97 | TTAAAAGGGAAGTGAGAAGA | 2.18 z-score
98 | AGGGAGGGGAAGTGAATGCC | 2.09 z-score
99 | ACAAAAAGGAACTGTGCCAC | 0.619 z-score
100 | TGAAAGAGGAAGCGCAACCA | 2.46 z-score

Row | Sequence | binding signal
101 | AGAGGGAGGAAGTGGTGCAG | 2.55 z-score
102 | GAAATCAGGAAGTGCAAGTC | 3.22 z-score
103 | AAAAAGCGGAAGTGCAAAAG | 5.08 z-score
104 | TGGCAGAGGAAGTGGCCATT | 2.61 z-score
105 | TAAATGGGGAAGTCACATAT | 2.4 z-score
106 | CAAAAAGGCAAGTGGATGCT | 0.146 z-score
107 | ACCATAGGGAAGTGGAAACA | 1.75 z-score
108 | TTGAGGAGGAAGTGGGGTCT | 2.78 z-score
109 | GAGAAGAGGAAGTCCTCTGT | 3.19 z-score
110 | GCCTAGGGGAACTGCCTGTG | 0.19 z-score
111 | TCAAAGGGGAAGTGAGGCCA | 2.85 z-score
112 | AGAAAGAGGAAGTTCCCGTC | 4.3 z-score
113 | GAAAAGAGGAAGTTGGGGAA | 5.17 z-score
114 | GAAAAGAGGAACTCAAATTG | 2.77 z-score
115 | AGAATGAGGAAGTCATCACA | 3.79 z-score
116 | AACAAGAGGAAGTGGCTTTC | 3.74 z-score
117 | GATAAGAGGAAGTCCTCCGT | 2.91 z-score
118 | TAAGAAAGGAAGTGAGCAGA | 2.32 z-score
119 | CGAATGAGGAAATGAAGGCA | 1.96 z-score
120 | AGACAGGGGAAGTGATCTGC | 1.88 z-score
